Results published in the supplement of paper PMC4967469.
By IC50 is meant the dose at which the fit gives 50% viability; a fit beyond the top or the lowest dose is shown as a bound at that dose. For AUC the same curve is integrated over the 256-fold range of doses and scaled to a fraction; values near 1 show little effect. Any top dose called inferred was derived from the fitted curves, not read from the paper. For part of these data: An entry number marks a drug with two screens in the source, which often give different values.

Columns and labels:
Assay in all cases: Viability of human cancer cell lines after 72 h of drug (GDSC screen)
BMS-536924 = compound: Cc1cc(N2CCOCC2)cc2[nH]c(-c3c(NC[C@@H](O)c4cccc(Cl)c4)cc[nH]c3=O)nc12 [BMS-536924]; conditions: top dose 4 µM; screen: GDSC drug entry 1091; top dose inferred
Method: (§1)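 Human cancer cell lines in 384-well plates, medium with 10% serum, drug for 72 h over a 256-fold dose range (nine 2-fold or five 4-fold steps up to the top dose). Adherent lines were fixed and stained with the nucleic acid dye Syto60, suspension lines read with resazurin; signal relative to control wells, capped at 0 and 100%. One two-parameter sigmoid per drug and line, fitted in a mixed model over all curves with the slope shared within a line.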

Olaparib = compound: O=C(c1cc(Cc2n[nH]c(=O)c3ccccc23)ccc1F)N1CCN(C(=O)C2CC2)CC1 [Olaparib]
Method: as §1

Shikonin = compound: CC(C)=CC[C@@H](O)C1=CC(=O)c2c(O)ccc(O)c2C1=O [Shikonin]; conditions: top dose 16 µM; top dose inferred
Method: as §1

SB-525334 = compound: Cc1cccc(-c2[nH]c(C(C)(C)C)nc2-c2ccc3nccnc3c2)n1 [SB-525334]; conditions: top dose 20 µM; top dose inferred
Method: as §1

BIRB 0796 = compound: Cc1ccc(-n2nc(C(C)(C)C)cc2NC(=O)Nc2ccc(OCCN3CCOCC3)c3ccccc23)cc1 [BIRB 0796]; conditions: top dose 10 µM; top dose inferred
Method: as §1

Wee1 inhibitor 681640 = compound: O=C1NC(=O)c2c1c(-c1ccccc1Cl)cc1[nH]c3ccc(O)cc3c21 [Wee1 inhibitor 681640]; conditions: top dose 2 µM; top dose inferred
Method: as §1

HG-5-113-01 = compound: CNC(=O)c1ccc(Nc2cc(Nc3ccccc3S(=O)(=O)C(C)C)c3cc[nH]c3n2)nc1 [HG-5-113-01]; conditions: top dose 10 µM; top dose inferred
Method: as §1

VX-702 = compound: NC(=O)c1ccc(N(C(N)=O)c2c(F)cccc2F)nc1-c1ccc(F)cc1F [VX-702]; conditions: top dose 2 µM; top dose inferred
Method: as §1

[1] = top dose 5 µM, screen: GDSC drug entry 1017, top dose inferred
[2] = top dose 10 µM, screen: GDSC drug entry 1495

| Cell Line | AUC (BMS-536924) | IC50 (BMS-536924) [µM] | AUC (Olaparib; [1]) | IC50 (Olaparib; [1]) [µM] | AUC (Olaparib; [2]) | IC50 (Olaparib; [2]) [µM] | AUC (Shikonin) | IC50 (Shikonin) [µM] | AUC (SB-525334) | IC50 (SB-525334) [µM] | AUC (BIRB 0796) | IC50 (BIRB 0796) [µM] | AUC (Wee1 inhibitor 681640) | IC50 (Wee1 inhibitor 681640) [µM] | AUC (HG-5-113-01) | IC50 (HG-5-113-01) [µM] | AUC (VX-702) | IC50 (VX-702) [µM] |
| --- | --- | --- | --- | --- | --- | --- | --- | --- | --- | --- | --- | --- | --- | --- | --- | --- | --- | --- |
| 22RV1 (prostate, adherent) | 0.893 | > 4 | 0.979 | > 5 | 0.954 | > 10 | 0.669 | 3.33 | 0.982 | > 20 | 0.953 | > 10 | 0.958 | > 2 | 0.784 | 5.38 | 0.957 | > 2 |
| 639-V (bladder, adherent) | 0.967 | > 4 | 0.938 | > 5 | 0.923 | > 10 | 0.266 | 0.245 | 0.966 | > 20 | 0.984 | > 10 | 0.989 | > 2 | 0.829 | 5 | 0.981 | > 2 |
| 8305C (thyroid, adherent) | 0.877 | > 4 | 0.974 | > 5 | 0.952 | > 10 | 0.405 | 0.505 | 0.982 | > 20 | 0.969 | > 10 | 0.932 | > 2 | 0.846 | > 10 | 0.981 | > 2 |
| 8505C (thyroid, adherent) | 0.923 | > 4 | 0.925 | > 5 | 0.925 | > 10 | 0.714 | 4.2 | 0.898 | > 20 | 0.887 | > 10 | 0.979 | > 2 | 0.739 | 3.16 | 0.973 | > 2 |
| A427 (non-small cell lung carcinoma, adherent) | 0.927 | > 4 | 0.934 | > 5 | 0.958 | > 10 | 0.199 | 0.127 | 0.836 | 13.4 | 0.984 | > 10 | 0.869 | 1.88 | 0.726 | 2.77 | 0.967 | > 2 |
| A2780 (ovary, semi-adherent) | 0.96 | > 4 |  |  |  |  | 0.588 | 1.76 | 0.721 | 5.44 | 0.966 | > 10 | 0.98 | > 2 | 0.736 | 3.02 | 0.935 | > 2 |
| AGS (stomach, adherent) |  |  | 0.978 | > 5 |  |  | 0.338 | 0.374 | 0.916 | > 20 | 0.99 | > 10 | 0.979 | > 2 | 0.585 | 1.04 | 0.99 | > 2 |
| BT-20 (breast, adherent) | 0.98 | > 4 |  |  |  |  | 0.611 | 2.18 | 0.977 | > 20 | 0.984 | > 10 | 0.939 | > 2 | 0.88 | > 10 | 0.971 | > 2 |
| CAPAN-1 (pancreas, adherent) | 0.952 | > 4 |  |  |  |  | 0.474 | 0.844 | 0.974 | > 20 | 0.828 | 7.13 | 0.987 | > 2 | 0.821 | 6.66 | 0.974 | > 2 |
| DoTc2-4510 (cervix, adherent) | 0.957 | > 4 |  |  |  |  | 0.29 | 0.265 | 0.979 | > 20 | 0.984 | > 10 | 0.957 | > 2 | 0.82 | 5.35 | 0.974 | > 2 |
| H290 (mesothelioma, adherent) | 0.964 | > 4 | 0.985 | > 5 | 0.971 | > 10 | 0.477 | 0.871 |  |  | 0.958 | > 10 | 0.983 | > 2 | 0.746 | 2.94 | 0.975 | > 2 |
| HCC1395 (breast, adherent) | 0.955 | > 4 |  |  |  |  | 0.714 | 4.6 | 0.979 | > 20 | 0.95 | > 10 | 0.949 | > 2 | 0.889 | > 10 | 0.982 | > 2 |
| HCC1937 (breast, adherent) | 0.981 | > 4 |  |  |  |  | 0.527 | 1.2 | 0.965 | > 20 | 0.928 | > 10 | 0.985 | > 2 | 0.908 | > 10 | 0.976 | > 2 |
| HCT-15 (large intestine, adherent) | 0.965 | > 4 |  |  |  |  | 0.297 | 0.257 | 0.973 | > 20 | 0.984 | > 10 | 0.935 | > 2 | 0.916 | > 10 | 0.987 | > 2 |
| HCT-116 (large intestine, adherent) | 0.767 | 1.41 |  |  |  |  | 0.374 | 0.459 | 0.959 | > 20 | 0.976 | > 10 | 0.963 | > 2 | 0.661 | 1.71 | 0.976 | > 2 |
| HT-29 (large intestine, adherent) | 0.785 | 1.71 |  |  |  |  | 0.431 |  | 0.901 | > 20 | 0.986 | > 10 | 0.988 | > 2 | 0.789 | 4.42 | 0.987 | > 2 |
| JHU-029 (head and neck, adherent) | 0.809 | 2.69 | 0.927 | > 5 | 0.832 | 8.56 | 0.297 | 0.233 |  |  | 0.968 | > 10 | 0.968 | > 2 | 0.685 | 2.34 | 0.957 | > 2 |
